# In article PMC4336329 (PLoS ONE, 2015):
# Among all 310,000 compounds or so, about 2,200 (0.71%) showed an effect of 50% or more. Effects have a minus sign here. The list shows a part of the results.
# Target: human ether-à-go-go-related gene (hERG) potassium channel (human, UniProt Q12809)
# Assay: primary screen, population patch clamp on CHO cells stably expressing hERG
# Chain of human ether-à-go-go-related gene (hERG) potassium channel (Q12809 whole entry, looked up): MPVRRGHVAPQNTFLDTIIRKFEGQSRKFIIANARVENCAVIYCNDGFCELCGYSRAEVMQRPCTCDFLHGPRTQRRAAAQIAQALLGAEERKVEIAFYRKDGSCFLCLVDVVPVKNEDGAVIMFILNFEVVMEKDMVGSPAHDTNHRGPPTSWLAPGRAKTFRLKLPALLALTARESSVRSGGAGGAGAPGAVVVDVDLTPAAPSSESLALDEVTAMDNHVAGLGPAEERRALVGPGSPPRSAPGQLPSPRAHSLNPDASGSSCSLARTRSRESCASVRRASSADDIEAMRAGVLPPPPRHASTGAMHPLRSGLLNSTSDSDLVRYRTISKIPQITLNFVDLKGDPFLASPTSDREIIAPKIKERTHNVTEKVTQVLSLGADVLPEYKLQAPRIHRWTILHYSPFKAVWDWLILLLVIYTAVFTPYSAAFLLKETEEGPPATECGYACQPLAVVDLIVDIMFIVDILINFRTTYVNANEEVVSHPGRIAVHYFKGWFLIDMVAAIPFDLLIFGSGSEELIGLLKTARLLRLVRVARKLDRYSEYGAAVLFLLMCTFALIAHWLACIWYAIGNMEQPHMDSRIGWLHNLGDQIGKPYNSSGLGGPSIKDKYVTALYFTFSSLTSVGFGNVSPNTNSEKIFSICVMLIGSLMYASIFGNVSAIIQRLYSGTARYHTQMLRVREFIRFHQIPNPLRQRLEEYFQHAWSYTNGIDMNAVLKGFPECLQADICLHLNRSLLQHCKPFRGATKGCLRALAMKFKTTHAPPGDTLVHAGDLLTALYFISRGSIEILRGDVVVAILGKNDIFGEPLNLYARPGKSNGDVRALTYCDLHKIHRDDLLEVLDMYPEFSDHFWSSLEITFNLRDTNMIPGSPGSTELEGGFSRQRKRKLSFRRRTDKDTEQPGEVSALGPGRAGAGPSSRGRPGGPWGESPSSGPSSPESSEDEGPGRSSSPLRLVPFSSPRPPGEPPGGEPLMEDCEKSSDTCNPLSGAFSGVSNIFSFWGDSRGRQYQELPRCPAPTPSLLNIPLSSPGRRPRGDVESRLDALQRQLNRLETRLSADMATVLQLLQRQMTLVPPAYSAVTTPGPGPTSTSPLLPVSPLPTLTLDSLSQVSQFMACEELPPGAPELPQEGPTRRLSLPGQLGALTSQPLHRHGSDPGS
row,Structure (SMILES),"hERG current change (%, negative = inhibition) at 1uM [%]"
1,CCn1c(NCc2ccc3c(c2)OCO3)nc2ccccc21,-0.884
2,Cc1cc(C)c(NC(=O)c2cn3c4c(c(N5CCN(C)CC5)c(F)cc4c2=O)OCC3C)c(C)c1 (centres unmarked),-4.19
3,COc1ccc(-c2cn3cccnc3n2)cc1NC(=O)C(C)C,14.6
4,O=C(CSCc1c(F)cccc1Cl)NCc1ccncc1,10.1
5,Cc1cc(S(=O)(=O)NCC2CC2)c(Cl)cc1Cl,8.11
6,O=C(C1CCN(S(=O)(=O)c2cccc3cccnc23)CC1)N1CCCC1,9.79
7,COc1ccccc1NS(=O)(=O)c1ccc2[nH]c(=O)[nH]c2c1,5.1
8,O=C(c1ccco1)N1CCN(Cc2cn[nH]c2-c2ccc(F)cc2F)CC1,11.5
9,CC(C)OCCCNC(=O)C1CCC(CNS(=O)(=O)c2ccc(Cl)cc2)CC1 (centres unmarked),11.2
10,COc1ccc(NC(=O)CN(C)C(=O)Cn2c(=O)oc3ccccc32)cc1,13.9
11,CCN(CC)S(=O)(=O)c1ccc(N/N=C/c2ccc(OC)c(OC)c2OC)nc1,10.9
12,C[C@@H](O)C1NC(=O)[C@H](CCCCN)NC(=O)c2cc([N+](=O)[O-])cc(I)c2OCC[C@@H](C(N)=O)NC1=O (some centres unmarked),18.3
13,COc1ccc(S(=O)(=O)N2CN(CCc3ccc(OC)c(OC)c3)c3nc4ccccc4nc32)cc1,5.2
14,COc1cc(C=O)ccc1OCCSc1ccc(Cl)cc1,0.559
15,CCN(CC)C1CCN(C(=O)c2cc(COc3ccc(-n4cncn4)cc3)on2)C1 (centres unmarked),13.1
16,COC(=O)c1ccc(CSc2nnc(Nc3ccccc3OC)s2)o1,-30
17,COC(=O)c1ccccc1SC(CC(=O)c1ccccc1)c1ccc(F)cc1 (centres unmarked),10
18,O=C(c1ccc2nc[nH]c2c1)N1CCN(c2ncc(C(F)(F)F)cc2Cl)CC1,6.29
19,COc1cc(/C=C(\C#N)C(=O)NCC2CCCO2)ccc1OCC(=O)O (centres unmarked),11.5
20,CCC(C)n1c(O)c(/C=N/Nc2nc3c(c(=O)n(C)c(=O)n3C)n2C)c(=O)[nH]c1=S (centres unmarked),11.6
21,COCCN(C(=O)c1ccc(-c2ccc(Cl)cc2)o1)c1c(N)n(Cc2ccccc2)c(=O)[nH]c1=O,4.91
22,COc1ccc(N2C(=O)CC(N3CCN(c4ccccc4F)CC3)C2=O)cc1 (centres unmarked),10.7
23,COc1ccc(CNC(=O)c2noc(C)c2[N+](=O)[O-])cc1,6.55

row,Structure (SMILES),"hERG current change (%, negative = inhibition) at 1uM [%]"
1,Clc1cccc(-c2nc(-c3ccccn3)no2)c1,10.7
2,O=C(COc1ccccc1)N1N=C(c2cccnc2)CC1(O)C(F)(F)F (centres unmarked),12.5
3,COc1cc(OC)cc(-c2cc3nc(C)c(CCC(=O)O)c(C)n3n2)c1,25.6
4,CN1C(=O)c2ccc(NC(=O)CSc3ccccc3)cc2C1=O,13.1
5,CCCc1nc(NCC2CCCO2)c2nnn(Cc3ccccc3)c2n1 (centres unmarked),14.3
6,COCCN(C)C(=O)CCc1nnc(Cc2ccc(-c3ccccc3)cc2)o1,-5.78
7,Cc1cccc(NS(=O)(=O)c2nnc(NC(=O)c3ccc(Cl)cc3)s2)c1,9.52
8,CCOC(=O)c1csc(NC(C)=O)n1,7.33
9,COc1ccc(C(CC(=O)Nc2ccccn2)N2Cc3ccccc3C2=O)cc1 (centres unmarked),9.84
10,Cc1cccc(NC(=S)N2CCN(Cc3ccccc3)CC2)c1C,-4.61
11,O=C(NCC1CCCN1S(=O)(=O)c1cccs1)c1ccc(F)cc1 (centres unmarked),1.26
12,CCOC(=O)C1CCN(C(=O)COc2ccc(S(=O)(=O)N3CCOCC3)cc2C)CC1,7.44
13,COc1ccc(C2C3=C(N=C4SCC(=O)N42)c2ccccc2CC3)cc1 (centres unmarked),-1.65
14,CSc1cccc(NC(=O)CCNS(=O)(=O)c2ccc3[nH]c(=O)oc3c2)c1,14.1
15,NCc1c(O)ccc2ccccc12,13.7
16,CCC(C)n1c(O)c(C=NCCc2ccccc2)c(=O)[nH]c1=S (centres unmarked),10.6
17,CCOc1cc(C(=O)N(C)Cc2cc3cc(OC)ccc3[nH]c2=O)cc(OCC)c1OCC,0.31
18,CCN(CC(=O)N1CCOCC1)S(=O)(=O)c1ccc(Cl)cc1,5.49
19,O=[N+]([O-])c1ccc(NCCc2ccccc2)c(Br)c1,14.2
20,CCOc1ccc(N=Cc2c(O)n(-c3cccc(C)n3)c(=O)c3ccccc23)cc1,-6.39
21,COc1cccc(NC(=S)NC(=O)/C=C/c2ccc(F)cc2)c1,19
22,CCO[C@@H]1c2c(ccc3ccc(=O)oc23)OC(C)(C)[C@@H]1O,14
23,CCCCNC(=O)C1CCN(Cc2ccccn2)CC1,13.2

row,Structure (SMILES),"hERG current change (%, negative = inhibition) at 1uM [%]"
1,O=C(CSc1nccc(=O)[nH]1)NC1CCCc2ccccc21 (centres unmarked),9.07
2,CCOC(=O)C1CCCN(C(=O)c2ccc(C)c(NC(=O)C3=C(C)OCCS3)c2)C1 (centres unmarked),0.737
3,CCOc1ccc(Cn2nnc(-c3ccc(S(C)(=O)=O)cc3)n2)cc1OCC,10.6
4,O=C(CNC(=O)c1cccs1)N=Nc1c(O)[nH]c2ccc(Br)cc12,13
5,COc1ccc(-n2c(-c3ccc(Br)cc3)c[n+]3c2CCCCC3)cc1.[Br-],-24.6
6,Cc1oc(-c2ccccc2Cl)nc1CSc1nc2c(c(=O)[nH]1)CCCC2,8.24
7,Cc1cc(C)c(S(=O)(=O)N2CCCCC2CCNC(=O)C(=O)NCCN2CCOCC2)c(C)c1 (centres unmarked),6.75
8,Cc1nccn1S(=O)(=O)c1cc([N+](=O)[O-])ccc1Cl,6.77
9,Cn1c(Oc2ccc(F)cc2F)c(C=O)c2ccccc21,6.16
10,COc1ccc2[nH]c(=O)c(CNc3ccc(C)c(C)c3)cc2c1,6.61
11,CN(CCCC1CCCC1)C(=O)c1cc(COc2ccc(F)c(F)c2)on1,12.9
12,Fc1ccc(N2CCN(c3nnnn3-c3ccccc3)CC2)cc1,10.5
13,CCOC(=O)C1(Cc2cccc(OC)c2)CCN(Cc2ccc(C)s2)CC1,-53.1
14,CC(C)c1ccc(NC(=O)N2CCc3ccccc3C2)cc1,10.1
15,O=C(Nc1cccc(S(=O)(=O)C(F)F)c1)c1ccc(S(=O)(=O)N2CCCC2)cc1,8.32
16,Cn1c(=O)c2c(nc(Cl)n2CC(=O)N2CCCCC2)n(C)c1=O,22.7
17,O=C1c2ccccc2C(=O)N1CCCOc1ccccc1,12.8
18,O=C(NCCCn1ccnc1)/C(=C\c1cccnc1)NC(=O)c1ccccc1F,8
19,Cc1ccc(C2CC(=O)Nc3cc4c(cc32)OCO4)o1 (centres unmarked),9.99
20,CC(C)(C)NC(=O)C(=O)NNC(=O)COc1ccccc1,-8.11
21,CN1C(=O)c2ccc(NC(=O)C3CC3)cc2C1=O,13.7
22,Nc1nonc1NC(=O)NN=C1CCCCC1,0.561
23,Cc1[nH]c2ccccc2c1/C=N/NC(=O)CCC(=O)NCc1ccccc1,13.7

row,Structure (SMILES),"hERG current change (%, negative = inhibition) at 1uM [%]"
1,Cc1cccn2c(=O)c3cc(C(=O)N4CC(C)CC(C)C4)sc3nc12 (centres unmarked),12.4
2,O=C(CN1C(=O)C(=O)N(Cc2ccccc2)C1=O)Nc1ccc(OC(F)F)cc1,10.2
3,Cc1cc(=O)[nH]c(NCc2ccccc2)n1,5.39
4,O=C(NCc1cc(C(F)(F)F)cc(C(F)(F)F)c1)C1CC(c2ccc(C(F)(F)F)cc2)=NO1 (centres unmarked),18.6
5,Cn1cc(SCC(N)=O)c2ccccc21,4.32
6,COc1cc2cc(C(=O)N/N=C/c3ccc(F)cc3)[nH]c2cc1OC,7.96
7,COc1ccc2[nH]c3c(N4CC(C)OC(C)C4)ncnc3c2c1 (centres unmarked),6.22
8,O=C(O)c1ccc(N2C(=O)c3ccc(C(=O)c4cccc([N+](=O)[O-])c4)cc3C2=O)cc1,1.43
9,CCOC(=O)c1cnc2c(OC)cccc2c1N1CCN(c2ccccn2)CC1,-8.21
10,Cc1ccc(OC(=O)c2ccc(Br)o2)cc1,6.59
11,O=C(Nc1ccccc1F)c1ccn[nH]1,17.9
12,COc1cccc(C(=O)CN2CCN(S(=O)(=O)c3ccc(Br)cc3)CC2)c1,2.98
13,COC(=O)Nc1nn(-c2ccc(Cl)cc2)c(=O)c(C#N)c1C,-6.47
14,COc1cc2c(cc1OC)C(C)N(C(=O)c1cc3c(=O)oc4ccc(C)cc4c3s1)CC2 (centres unmarked),13.7
15,Cc1ccc(-n2c(-c3ccncc3)n[nH]c2=S)cc1,13.4
16,CC(=O)c1cn(CC(=O)Nc2ccccc2)c2ccccc12,8.37
17,Cc1ccc(S(=O)(=O)/N=C(/Nc2nc(C)cc(C)n2)N2CCOCC2)cc1,15.8
18,O=C(CSCc1ccc(F)cc1)Nc1ccccc1,-3.29
19,COc1cccc(/C=N/NC(=S)Nc2cccc(S(=O)(=O)N(C)C)c2)c1,11.8
20,O=C1CC(N2CCN(Cc3ccccc3)CC2)C(=O)N1 (centres unmarked),16.4
